Where “and” joins values, the source holds several entries; their conditions need not be identical. Equal entries are not always repeated.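 1) Cells in 96-well plates. 2) Compound, 48 h, 5 concentrations. 3) Linear interpolation between surrounding doses. 4) Unreached endpoint = highest concentration. GI50 marks 50% less growth. The concentration for full growth arrest is given as TGI.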 Square brackets hold non-standard residues; d marks the D form. Peptide text beside a SMILES is read from it. Phe(4-NO2) = N[CH](Cc1ccc([N+](=O)[O-])cc1)C(=O)O
Tested on: NCI-H322M lung
Assay: inhibition of tumour cell growth, NCI panel, 48 h

Compound | GI50 | TGI
N/C(=N/N=C/c1ccccc1)N/N=C\c1ccccc1 | 14.3 µM | > 100 µM
CC(=O)Oc1ccc2cc(Oc3ccc(Cl)c(Cl)c3)c(=O)oc2c1 |  | > 100 µM
C/C(=N\NC(=S)N(C)C)c1nc2ncccc2[nH]1 |  | 50.9 µM
COc1ccc(NC(=O)CC/C(CC(=O)c2ccco2)=N/NC(N)=S)cc1 |  | > 100 µM
COCCNc1ccc2c3c(cccc13)C(=O)N(CCN(C)C)C2=O | 6 µM | > 25 µM
Cc1ccc(NC(=O)c2cc3ccccc3c(N=Nc3cc(S(=O)(=O)O)ccc3O)c2O)c(C)c1 |  | > 100 µM
COc1ccc(-c2cc(-c3ccc(O)cc3O)c(C#N)c(=O)[nH]2)cc1 |  | 84.1 µM
O=C(O)COc1ccc(C(=O)/C(SS/C(C(=O)c2ccc(OCC(=O)O)c(Cl)c2Cl)=C2\C=C(c3ccc(Cl)cc3)SS2)=C2/C=C(c3ccc(Cl)cc3)SS2)c(Cl)c1Cl |  | > 100 µM
COc1ccc2cc(C(=O)/C=C/c3ccc(N(C)C)cc3)ccc2c1 | > 100 µM | > 100 µM
N#Cc1ccc(CSC2=C(c3ccc(Cl)cc3)S/C(=C3\SC(SCc4ccc(C#N)cc4)=C(c4ccc(Cl)cc4)S3)S2)cc1 |  | > 100 µM
CCOC(=O)C1C(C)C2(C#N)C(=N)OC1(C)C2(C#N)C#N (configuration not stated) |  | > 100 µM
[Cl][Hg][c]1ccc(Cl)s1 | 14.8 µM | 28.7 µM
O[C@H]1[C@H](O)[C@@H](O)[C@@]2(O)CC[C@@H]1N2 |  | > 100 µM
CC1CC/C(=C\c2ccc(N(C)C)cc2)C2=C1C(c1ccc(N(C)C)cc1)NC(=S)N2 (configuration not stated) |  | > 100 µM
Nc1nc(Cl)cc(NCC(O)CO)n1 (configuration not stated) |  | > 100 µM
N#Cc1c(N2CCOCC2)nc(=S)[nH]c1-c1ccccc1 | 15.4 µM | > 100 µM
C=CCN1COc2c(cc3c4c(cccc24)C(=O)O3)C1 |  | 50.8 µM
O=c1cc(CSc2c(-c3ccccc3)c(=O)n(-c3ccccc3)c(=S)n2-c2ccccc2)[nH]c(=O)[nH]1 |  | > 100 µM
CCCc1cc(=O)n2c(C(=O)Nc3cccc(C(=O)OCC)c3)c(C(=O)Nc3ccc(F)cc3)sc2n1 | 134 µM | > 140 µM
COC(=O)c1ccccc1NC(=NC1CCCCCC1)NS(=O)(=O)c1ccc(C)cc1 |  | > 100 µM
O=C(NC(=O)c1ccccc1[N+](=O)[O-])Nc1ccc(Oc2ncc(Cl)cn2)c([N+](=O)[O-])c1 |  | > 49.7 µM
Cc1ccc2c(c1)c(Sc1ccc(C(=O)NO)cc1)c1n2CN(C)CC1 | 2.31 µM | 9.66 µM
CCOC(=O)C1(N)CCc2[nH][nH]c(=O)c2C1 (configuration not stated) |  | > 100 µM
CONC(C)=O |  | > 100 µM
C/C(=N\NC(=S)NCCCCNC(=S)N/N=C(\C)c1ccccn1)c1ccccc1 |  | > 53.7 µM
CCN(CC)CCN(C(=Nc1ccccc1)N1CCCCC1)c1ccccc1 |  | 62.5 µM
CCc1nc(N)nc(N)c1-c1ccc2nnn(O)c2c1 |  | > 100 µM

Compound | GI50 | TGI
Cc1ccc(N=NC(=Nc2ccc(Cl)cc2)c2ccc(N(CCC#N)CCC#N)cc2)cc1 |  | > 100 µM
CCC(O)C1Cc2c(C)cc3c(c2O1)C(=O)c1ccccc1C3=O (configuration not stated) |  | > 100 µM
COc1cc(-c2oc3c(OC)cc(OC)c(O)c3c(=O)c2OC)cc(OC)c1OC |  | > 100 µM
C=CCN1C[C@H](C)N([C@@H](c2ccc(C(=O)N3CCCCC3)cc2)c2cccc(OC)c2)C[C@H]1C |  | > 100 µM
CCCN(CCC)C(=S)N/N=C/c1ccccn1 |  | 17.7 µM
O=[N+]([O-])c1ccc(C2=Nn3c(nnc3-c3ccc(Cl)cc3)SC2)o1 |  | 28.3 µM
Clc1ccc(CCn2cncn2)cc1 |  | > 100 µM
Cn1ncc2c(Nc3cccc(Cl)c3)nc(Nc3cccc(Cl)c3)nc21 |  | 45.3 µM
COc1ccc(Cc2c(=O)[nH]nc3ccccc23)cc1 |  | > 100 µM
COc1ccc2c(c1)CC[C@@H]1[C@@H]2CC[C@]2(C)c3c(cc(C(=O)O)c4sccc34)C[C@@H]12 | 19.4 µM | 52.6 µM
CC[C@@]1(O)C(=O)OCc2c1cc1n(c2=O)Cc2cc3cccc([N+](=O)[O-])c3nc2-1 | 4.51 µM | 73.3 µM
Cc1c(Cl)nc(Cl)nc1Cl |  | 5.71 µM
CC(=O)Nc1c(I)c(NC(C)=O)c(I)c(C(=O)O)c1I | > 100 µM | > 100 µM
Cc1nn2c(nc1=O)sc1ccc3ccccc3c12 |  | > 100 µM
COc1cc2ncnc(Nc3cccc(Cl)c3F)c2cc1OC(=O)N1CCN(C)C[C@H]1C | 0.111 µM | > 61.8 µM
CCCCNC(=O)C1C(=O)N(CCCC)C(=O)/C1=N\N (configuration not stated) |  | > 100 µM
COC(=O)C1=C(OC(=O)/C(=C/c2ccccc2)c2ccc(Cl)cc2)C(C(=O)OC)[C@@]2(O)[C@@H](C(=O)OC)[C@H](C)C[C@@H]1[C@@H]2C(=O)OC (some centres not stated) |  | > 100 µM
CC(N)(/C=C/c1ccccc1)C(=O)O (configuration not stated) |  | > 100 µM
O=c1c2ccccc2nc2n1-c1ccccc1SC2 |  | > 100 µM
CCC1CCN=C(NS(=O)(=O)c2cc(C)c(Cl)cc2S)N1 (configuration not stated) |  | > 100 µM
CCCCC(C(=O)CCC(=O)Nc1ccc(Cl)c(Cl)c1)C(=O)C(C)C (configuration not stated) |  | > 100 µM
O=C1C=CC(=O)c2c1ccc1c3ccccc3n(-c3ccccc3)c21 |  | 34.3 µM
CC1(C)C2CC(O)C1CCC2=O (configuration not stated) |  | > 100 µM
C[C@]12CC[C@@H]3c4cc(O)c(O)cc4CC[C@H]3[C@@H]1CC[C@@H]2O | 10.4 µM | > 87.4 µM
COc1ccc(C(O)(c2ccccc2)c2nccc3ccccc23)cc1 (configuration not stated) |  | > 100 µM
OC[P+](CO)(CO)C12CC3CC(CC(C3)C1)C2 |  | > 100 µM
Nc1ccc(Oc2ccc(C3(c4ccc(Oc5ccc(N)cc5)cc4)C4CC5CC(C4)CC3C5)cc2)cc1 |  | 1.74 µM

Compound | GI50 | TGI
O=C(/C=C/c1ccc(C(F)(F)F)cc1)c1c([O-])on[n+]1-c1ccccc1 |  | 28 µM
COc1cc2oc(-c3ccc4c(c3)OCO4)c(OC)c(=O)c2c(OC)c1O |  | > 100 µM
CC1=CCCC2C1(C)CCC(C)C2(C)Cc1cc(O)ccc1O (configuration not stated) | 11.3 µM | 24.5 µM and 21.6 µM
Cc1cc(C)n(-c2ccnc3cc(Cl)ccc23)n1 |  | > 100 µM
COC(=O)[C@H](Cc1c[nH]c2ccccc12)NP(=O)(O)OC[C@H]1O[C@@H](n2cc(C)c(=O)[nH]c2=O)C[C@@H]1N=[N+]=[N-] |  | > 100 µM
CC(=O)OCC1OC(n2c3c(cc(C#N)c2=S)CCC3)C(OC(C)=O)C(OC(C)=O)C1OC(C)=O (configuration not stated) |  | > 100 µM
C=C1C(=O)O[C@H]2[C@H]1CC/C(C=Nc1c(N)cc(C(F)(F)F)cc1C(F)(F)F)=C\CC[C@@]1(C)O[C@@H]21 | 2.13 µM | 6.33 µM
[N-]=[N+]=Nc1c(Cl)c(Cl)nc2ccccc12 |  | 75.8 µM
C[C@@H](NC(=O)/C(C#N)=C/c1ccc([N+](=O)[O-])cc1)c1ccccc1 | 2.74 µM | 7.52 µM
N#CC1=C(c2ccccc2)C(=C2Nc3ccccc3N2)C2S/C(=C\c3ccccc3)C(=O)N2C1=N (configuration not stated) |  | 10.6 µM
Clc1ccc(Nc2ccnc(N3CCN(c4ccnc5cc(Cl)ccc45)CC3)n2)cc1 | 6.6 µM | > 100 µM
COc1cc(/C=N\c2nc(-c3ccc(NS(=O)(=O)c4ccc(Cl)c(OC)c4)cc3)cs2)ccc1O |  | > 100 µM
O=C(Nc1ccc(-n2cc(-c3ccncc3)c(-c3ccc(O)c(Cl)c3)n2)cc1)Nc1ccc(Cl)c(C(F)(F)F)c1 | 4.26 µM | 22.3 µM
O=C(OCc1ccc([N+](=O)[O-])cc1)N1c2ccccc2[C@@]23O[C@]24CCC[C@H]3C#C/C=C\C#C[C@H]14 |  | > 100 µM
O=C1NC2C(=CC(O)C(O)C2O)c2cc3c(cc21)OCO3 (configuration not stated) | 0.314 µM and 0.254 µM | 7.54 µM and 4.97 µM
COc1ccc2c(c1)[nH]c(=O)c1c3ccccc3cn21 | 0.0826 µM | 2.54 µM and 6.95 µM
COc1ccc(Cn2cc3c(c2-c2ccccc2)CCc2cnoc2-3)cc1OC | 9.74 µM | > 100 µM
CCN1C(=O)N(CC)C2C1NN=c1s/c(=C\c3ccco3)c(=O)n12 (configuration not stated) | 0.877 µM | > 100 µM
COC(=O)C1=COC(OC2OC(CO)C(O)C(O)C2O)C2C3CN4CCc5c([nH]c6ccccc56)C4(CC12)O3 (configuration not stated) |  | > 100 µM
CC(NC(=O)C(Cc1ccc([N+](=O)[O-])cc1)NC(=O)C(N)CCCCN)C(=O)NC(Cc1ccc([N+](=O)[O-])cc1)C(N)=O (configuration not stated) (H-K[Phe(4-NO2)]A[Phe(4-NO2)]-NH2; configuration not given here) |  | > 100 µM
O=C([O][Hg][CH2]C1OCCOC1[CH2][Hg][O]C(=O)c1ccccc1)c1ccccc1 (configuration not stated) | > 43.3 µM | > 59.8 µM
COC(=O)c1ccccc1N1C(=O)Cc2ccccc2C1=O |  | > 100 µM
O=C(c1nc2ccccc2[nH]c1=O)C(O)c1ccco1 (configuration not stated) |  | > 100 µM
S=C(NCCNC(=S)[S][Sn]([c]1ccccc1)([c]1ccccc1)[c]1ccccc1)[S][Sn]([c]1ccccc1)([c]1ccccc1)[c]1ccccc1 | 0.0802 µM | 0.16 µM
CC1(Br)CC2OC3(Br)C=CC(C)(O)C2(CC1=O)C3(C)C (configuration not stated) |  | > 100 µM

From PubChem BioAssay (NCI)
